Measurements published in patent US5763404A, “Methods for using LHRH antagonists with low histamine release” (priority 1995, dated 1998).
Part of at least one peptide drawing is inferred or uncertain, most often the ends. Starred links: 1 amine or outer side, 2 acyl side, 3 side chain; linkers in the order of their positions; H or OH if unused. Non-standard residues stand in square brackets, D forms with d. Residues, ends and D or L forms follow the SMILES beside them. *: point of attachment. dAla(cis-4-NHCOPyz-cHex) = N[C@H](C[C@H]1CC[C@@H](NC(=O)c2cnccn2)CC1)C(=O)O; X2 = O=C(N[C@H]1CC[C@@H](C[C@H](N[*:1])C(=O)[*:2])CC1)c1cnccn1; X9 = CN=C(NCCC[C@H](N[*:1])C(=O)[*:2])N(C)C; dPhe(4-Cl) = N[C@H](Cc1ccc(Cl)cc1)C(=O)O; Pyrimidin2yl(4,6-Me2) = Cc1cc(C)nc(*)n1; d2Nal = N[C@H](Cc1ccc2ccccc2c1)C(=O)O; dLys(iPr) = CC(C)NCCCC[C@@H](N)C(=O)O; Lys(iPr) = CC(C)NCCCC[C@H](N)C(=O)O; Orn(iPr) = CC(C)NCCC[C@H](N)C(=O)O; 3Pal = N[C@@H](Cc1cccnc1)C(=O)O; d3Pal = N[C@H](Cc1cccnc1)C(=O)O; Nicotinoyl = O=C(c1cccnc1)*; Picolinoyl = O=C(c1ccccn1)*; Orn = NCCC[C@H](N)C(=O)O

Test system: 4-day cycling rats
Experiment: antiovulatory activity (AOA) in rats, single sc injection
Type: in vivo, rat
Settings: for AOA %/μg 0.5: 0.5 μg sc in corn oil; for AOA %/μg 1.0: 1.0 μg sc in corn oil; for AOA %/μg 2.0: 2.0 μg sc in corn oil

Row | SMILES | AOA %/μg 0.5 | AOA %/μg 1.0 | also measured
1 | CC(=O)N[C@H](Cc1ccc2ccccc2c1)C(=O)N[C@H](Cc1ccc(Cl)cc1)C(=O)N[C@H](Cc1cccnc1)C(=O)N[C@@H](CO)C(=O)N[C@@H](C[C@H]1CC[C@@H](NC(=O)c2cnccn2)CC1)C(=O)N[C@H](CCCCNC(=O)c1ccccn1)C(=O)N[C@@H](CC(C)C)C(=O)N[C@@H](CCCCNC(C)C)C(=O)N1CCC[C@H]1C(=O)N[C@H](C)C(N)=O [IBR 26180] (Ac-[d2Nal][dPhe(4-Cl)][d3Pal]S[X2][dK](Picolinoyl)L[Lys(iPr)]P[dA]-NH2) | 90% | – | –
2 | CC(=O)N[C@H](Cc1ccc2ccccc2c1)C(=O)N[C@H](Cc1ccc(Cl)cc1)C(=O)N[C@H](Cc1cccnc1)C(=O)N[C@@H](CO)C(=O)N[C@@H](CCCCNC(=O)c1ccccn1)C(=O)N[C@H](C[C@H]1CC[C@@H](NC(=O)c2cnccn2)CC1)C(=O)N[C@@H](CC(C)C)C(=O)N[C@@H](CCCNC(C)C)C(=O)N1CCC[C@H]1C(=O)N[C@H](C)C(N)=O [IBR 26181] (Ac-[d2Nal][dPhe(4-Cl)][d3Pal]SK(Picolinoyl)[dAla(cis-4-NHCOPyz-cHex)]L[Orn(iPr)]P[dA]-NH2) | 100% | – | AOA %/μg 0.25 (0.25 μg sc in corn oil): 50%
3 | CC(=O)N[C@H](Cc1ccc2ccccc2c1)C(=O)N[C@H](Cc1ccc(Cl)cc1)C(=O)N[C@H](Cc1cccnc1)C(=O)N[C@@H](CO)C(=O)N[C@@H](CCCCNC(=O)c1cccnc1)C(=O)N[C@H](Cc1cccnc1)C(=O)N[C@@H](CC(C)C)C(=O)N[C@@H](CCCNC(=N)N)C(=O)N1CCC[C@H]1C(=O)N[C@H](C)C(N)=O [compound 22495] (Ac-[d2Nal][dPhe(4-Cl)][d3Pal]SK(Nicotinoyl)[d3Pal]LRP[dA]-NH2) | 0% | – | –
4 | CC(=O)N[C@H](Cc1ccc2ccccc2c1)C(=O)N[C@H](Cc1ccc(Cl)cc1)C(=O)N[C@H](Cc1cccnc1)C(=O)N[C@@H](CO)C(=O)N[C@@H](CCCNC(=N)N)C(=O)N[C@H](CCCCNC(=O)c1cccnc1)C(=O)N[C@@H](CC(C)C)C(=O)N[C@@H](CCCNC(=N)N)C(=O)N1CCC[C@H]1C(=O)N[C@H](C)C(N)=O [compound 24199] (Ac-[d2Nal][dPhe(4-Cl)][d3Pal]SR[dK](Nicotinoyl)LRP[dA]-NH2) | 0% | 42% | –
5 | CC(=O)N[C@H](Cc1ccc2ccccc2c1)C(=O)N[C@H](Cc1ccc(Cl)cc1)C(=O)N[C@H](Cc1cccnc1)C(=O)N[C@@H](CO)C(=O)N[C@@H](CCCCNC(=O)c1cccnc1)C(=O)N[C@H](Cc1c[nH]cn1)C(=O)N[C@@H](CC(C)C)C(=O)N[C@@H](CCCNC(=N)N)C(=O)N1CCC[C@H]1C(=O)N[C@H](C)C(N)=O [compound 24544] (Ac-[d2Nal][dPhe(4-Cl)][d3Pal]SK(Nicotinoyl)[dH]LRP[dA]-NH2) | – | 100% | –
6 | CC(=O)N[C@H](Cc1ccc2ccccc2c1)C(=O)N[C@H](Cc1ccc(Cl)cc1)C(=O)N[C@H](Cc1cccnc1)C(=O)N[C@@H](CO)C(=O)N[C@@H](Cc1c[nH]cn1)C(=O)N[C@H](CCCCNC(=O)c1cccnc1)C(=O)N[C@@H](CC(C)C)C(=O)N[C@@H](CCCNC(=N)N)C(=O)N1CCC[C@H]1C(=O)N[C@H](C)C(N)=O [compound 24545] (Ac-[d2Nal][dPhe(4-Cl)][d3Pal]SH[dK](Nicotinoyl)LRP[dA]-NH2) | – | 89% | –
7 | CC(=O)N[C@H](Cc1ccc2ccccc2c1)C(=O)N[C@H](Cc1ccc(Cl)cc1)C(=O)N[C@H](Cc1cccnc1)C(=O)N[C@@H](CO)C(=O)N[C@@H](Cc1cccnc1)C(=O)N[C@H](CCCCNC(=O)c1cccnc1)C(=O)N[C@@H](CC(C)C)C(=O)N[C@@H](CCCNC(=N)N)C(=O)N1CCC[C@H]1C(=O)N[C@H](C)C(N)=O [compound 24593] (Ac-[d2Nal][dPhe(4-Cl)][d3Pal]S[3Pal][dK](Nicotinoyl)LRP[dA]-NH2) | – | 100% | –
8 | CC(=O)N[C@H](Cc1ccc2ccccc2c1)C(=O)N[C@H](Cc1ccc(Cl)cc1)C(=O)N[C@H](Cc1cccnc1)C(=O)N[C@@H](CO)C(=O)N[C@@H](CCCCNC(=O)c1cccnc1)C(=O)N[C@H](CCCCNC(=O)c1cccnc1)C(=O)N[C@@H](CC(C)C)C(=O)N[C@@H](CCCNC(=N)N)C(=O)N1CCC[C@H]1C(=O)N[C@H](C)C(N)=O [compound 24594] (Ac-[d2Nal][dPhe(4-Cl)][d3Pal]SK(Nicotinoyl)[dK](Nicotinoyl)LRP[dA]-NH2) | 22% | 100% | –
9 | CC(=O)N[C@H](Cc1ccc2ccccc2c1)C(=O)N[C@H](Cc1ccc(Cl)cc1)C(=O)N[C@H](Cc1cccnc1)C(=O)N[C@@H](CO)C(=O)N[C@@H](CCCCNC(=O)c1cccnc1)C(=O)N[C@H](CCCCNC(=O)c1cccnc1)C(=O)N[C@@H](CC(C)C)C(=O)N[C@@H](CCCCNC(=O)c1cccnc1)C(=O)N1CCC[C@H]1C(=O)N[C@H](C)C(N)=O [compound 24596] (Ac-[d2Nal][dPhe(4-Cl)][d3Pal]SK(Nicotinoyl)[dK](Nicotinoyl)LK(Nicotinoyl)P[dA]-NH2) | – | 0% | –
10 | CC(=O)N[C@H](Cc1ccc2ccccc2c1)C(=O)N[C@H](Cc1ccc(Cl)cc1)C(=O)N[C@H](CCCCNC(=O)c1cccnc1)C(=O)N[C@@H](CO)C(=O)N[C@@H](Cc1ccc(O)cc1)C(=O)N[C@H](CCCCNC(=O)c1cccnc1)C(=O)N[C@@H](CC(C)C)C(=O)N[C@@H](CCCNC(=N)N)C(=O)N1CCC[C@H]1C(=O)N[C@H](C)C(N)=O [compound 24597] (Ac-[d2Nal][dPhe(4-Cl)][dK](Nicotinoyl)SY[dK](Nicotinoyl)LRP[dA]-NH2) | – | 89% | –
11 | CC(=O)N[C@H](Cc1ccc2ccccc2c1)C(=O)N[C@H](Cc1ccc(Cl)cc1)C(=O)N[C@H](Cc1cccnc1)C(=O)N[C@@H](CO)C(=O)N[C@@H](Cc1c[nH]cn1)C(=O)N[C@H](CCCCNC(=O)c1cccnc1)C(=O)N[C@@H](CC(C)C)C(=O)N[C@@H](CCCCNC(=O)c1cccnc1)C(=O)N1CCC[C@H]1C(=O)N[C@H](C)C(N)=O [compound 24745] (Ac-[d2Nal][dPhe(4-Cl)][d3Pal]SH[dK](Nicotinoyl)LK(Nicotinoyl)P[dA]-NH2) | – | – | AOA %/μg 2.0: 18%
12 | CC(=O)N[C@H](Cc1ccc2ccccc2c1)C(=O)N[C@H](Cc1ccc(Cl)cc1)C(=O)N[C@H](Cc1cccnc1)C(=O)N[C@@H](CO)C(=O)N[C@@H](CCCCNC(C)C)C(=O)N[C@H](CCCCNC(=O)c1cccnc1)C(=O)N[C@@H](CC(C)C)C(=O)N[C@@H](CCCCNC(=O)c1cccnc1)C(=O)N1CCC[C@H]1C(=O)N[C@H](C)C(N)=O [compound 24746] (Ac-[d2Nal][dPhe(4-Cl)][d3Pal]S[Lys(iPr)][dK](Nicotinoyl)LK(Nicotinoyl)P[dA]-NH2) | – | 30% | –
13 | CC(=O)N[C@H](Cc1ccc2ccccc2c1)C(=O)N[C@H](Cc1ccc(Cl)cc1)C(=O)N[C@H](Cc1cccnc1)C(=O)N[C@@H](CO)C(=O)N[C@@H](CCCCNC(=O)c1cccnc1)C(=O)N[C@H](CCCCNC(C)C)C(=O)N[C@@H](CC(C)C)C(=O)N[C@@H](CCCNC(=N)N)C(=O)N1CCC[C@H]1C(=O)N[C@H](C)C(N)=O [compound 24754] (Ac-[d2Nal][dPhe(4-Cl)][d3Pal]SK(Nicotinoyl)[dLys(iPr)]LRP[dA]-NH2) | – | 56% | AOA %/μg 2.0: 73%
14 | CC(=O)N[C@H](Cc1ccc2ccccc2c1)C(=O)N[C@H](Cc1ccc(Cl)cc1)C(=O)N[C@H](Cc1cccnc1)C(=O)N[C@@H](CO)C(=O)N[C@@H](CCCNC(=N)N)C(=O)N[C@H](Cc1cccnc1)C(=O)N[C@@H](CC(C)C)C(=O)N[C@@H](CCCCNC(=O)c1cccnc1)C(=O)N1CCC[C@H]1C(=O)N[C@H](C)C(N)=O [compound 24771] (Ac-[d2Nal][dPhe(4-Cl)][d3Pal]SR[d3Pal]LK(Nicotinoyl)P[dA]-NH2) | 0% | – | –
15 | CC(=O)N[C@H](Cc1ccc2ccccc2c1)C(=O)N[C@H](Cc1ccc(Cl)cc1)C(=O)N[C@H](Cc1cccnc1)C(=O)N[C@@H](CO)C(=O)N[C@@H](Cc1ccc(O)cc1)C(=O)N[C@H](CCCCNC(C)C)C(=O)N[C@@H](CC(C)C)C(=O)N[C@@H](CCCCNC(=O)c1cccnc1)C(=O)N1CCC[C@H]1C(=O)N[C@H](C)C(N)=O [compound 24824] (Ac-[d2Nal][dPhe(4-Cl)][d3Pal]SY[dLys(iPr)]LK(Nicotinoyl)P[dA]-NH2) | – | – | AOA %/μg 2.0: 100%
16 | CC(=O)N[C@H](Cc1ccc2ccccc2c1)C(=O)N[C@H](Cc1ccc(Cl)cc1)C(=O)N[C@H](Cc1cccnc1)C(=O)N[C@@H](CO)C(=O)N[C@@H](Cc1ccc(O)cc1)C(=O)N[C@H](CCCCNC(=O)c1cccnc1)C(=O)N[C@@H](CC(C)C)C(=O)N[C@@H](CCCCN)C(=O)N1CCC[C@H]1C(=O)N[C@H](C)C(N)=O [compound 24825] (Ac-[d2Nal][dPhe(4-Cl)][d3Pal]SY[dK](Nicotinoyl)LKP[dA]-NH2) | – | 27% | –
17 | CN=C(NCCC[C@H](NC(=O)[C@H](CO)NC(=O)[C@@H](Cc1cccnc1)NC(=O)[C@@H](Cc1ccc(Cl)cc1)NC(=O)[C@@H](Cc1ccc2ccccc2c1)NC(C)=O)C(=O)N[C@H](CCCCNC(=O)c1cccnc1)C(=O)N[C@@H](CC(C)C)C(=O)N[C@@H](CCCCNC(C)C)C(=O)N1CCC[C@H]1C(=O)N[C@H](C)C(N)=O)N(C)C [compound 24931] (Ac-[d2Nal][dPhe(4-Cl)][d3Pal]S[X9][dK](Nicotinoyl)L[Lys(iPr)]P[dA]-NH2) | – | – | AOA %/μg 2.0: 44%
18 | CN=C(NCCC[C@H](NC(=O)[C@H](CC(C)C)NC(=O)[C@@H](CCCCNC(=O)c1cccnc1)NC(=O)[C@H](CCCCNC(=O)c1cccnc1)NC(=O)[C@H](CO)NC(=O)[C@@H](Cc1cccnc1)NC(=O)[C@@H](Cc1ccc(Cl)cc1)NC(=O)[C@@H](Cc1ccc2ccccc2c1)NC(C)=O)C(=O)N1CCC[C@H]1C(=O)N[C@H](C)C(N)=O)N(C)C [compound 24987] (Ac-[d2Nal][dPhe(4-Cl)][d3Pal]SK(Nicotinoyl)[dK](Nicotinoyl)L[X9]P[dA]-NH2) | – | – | AOA %/μg 2.0: 100%
19 | CC(=O)N[C@H](Cc1ccc2ccccc2c1)C(=O)N[C@H](Cc1ccc(Cl)cc1)C(=O)N[C@H](Cc1cccnc1)C(=O)N[C@@H](CO)C(=O)N[C@@H](CCCNc1nc(C)cc(C)n1)C(=O)N[C@H](CCCCNC(=O)c1cccnc1)C(=O)N[C@@H](CC(C)C)C(=O)N[C@@H](CCCCNC(C)C)C(=O)N1CCC[C@H]1C(=O)N[C@H](C)C(N)=O [compound 25506] (Ac-[d2Nal][dPhe(4-Cl)][d3Pal]S[Orn](Pyrimidin2yl(4,6-Me2))[dK](Nicotinoyl)L[Lys(iPr)]P[dA]-NH2) | 56% | – | –
